Data taken from PubChem BioAssay AID1508624 (National Center for Advancing Translational Sciences (NCATS), 2021).
Screen size: about 48,000 compounds; about 120 (0.25%) were called active. Inconclusive results (about 4%) are left out. Calls follow the shape of the dose curve; as a rule, active = well fitted activation curve with a large enough effect; inconclusive = small, poorly fitted or top-dose-only effect, or another doubt; inactive = no such curve, though single readings can be large or run the other way. The list shows a part of the results.

Test: Primary qHTS for Identification of Small Molecule Activators of Huntingtin-Antisense Promoter Activity; also: nearly all actives have a fitted effect of over 55% in size
Conditions: HEK293 HTT-AS promoter firefly luciferase reporter (activity 0% = vehicle and -100% = no light), 24 h; series mostly up to 57.5 µM; activity change, positive = activation: at the top concentration
Outline: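 HEK293 luciferase promoter-reporter cells (2,500/well) plated 24 h, then compounds added at up to 57.5 uM final for 24 h at 37 °C. Firefly luminescence by Dual-Glo, normalized to vehicle (0%) and zero RLU (-100%).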

Activity change, positive = activation, inactive:
O=C(CCNNC(=O)c1ccncc1)NCc1ccccc1 -7.52%
CCOC(=O)c1c(C)[nH]c(C)c1S(=O)(=O)N1CCC(C(=O)N2CCN(c3cccc(C)c3)C(C)C2)CC1 (stereo not given) -18.2%
O=C(Nc1ccc(C(F)(F)F)cc1)c1cc(S(=O)(=O)NC2CCCCCC2)ccc1F -74.7%
CCOC(=O)c1ccc(CN(Cc2ccc(F)cc2)S(=O)(=O)c2ccc(F)cc2)cc1 -15.9%
Cc1nc2ccccn2c(=O)c1CCN1CCC(C(=O)c2ccc(F)cc2)CC1 -18.9%
CCCOc1ccc(C2c3c(oc4ccccc4c3=O)C(=O)N2c2ccc(C)cn2)cc1OCC (stereo not given) -10%
Cc1ccc(C)c(NC(=O)Nc2nnc(N(CC(C)C)CC(C)C)s2)c1 -22.9%
Cc1ccc(CCNC(=O)c2ccc3c(=O)n(-c4ccc(C)cc4)c(=O)[nH]c3c2)cc1 22.9%
CCOc1cccc2sc(NC(=O)c3ccc(S(=O)(=O)N4CCCc5ccccc54)cc3)nc12 -24.6%
Cc1ccccc1S(=O)Cc1ccc(C(=O)NC2CCCCCC2)o1 (stereo not given) -15%
COc1ccc2oc(=O)c(-c3nc(-c4cc(OC)c(OC)c(OC)c4)no3)cc2c1 -2.88%
Cc1ccccc1N1CCN(CCc2nnc3n2CCCC3)CC1 -2.81%
CCC(=O)c1ccc2c(c1)N(CCCN(C)C)c1ccccc1S2 -16.3%
O=C(Cn1cc(SCc2cccc(F)c2)c2ccccc21)N1CCCC1 14.3%
Cc1cc2oc(C(=O)Nc3sc4c(c3C(=O)NCc3ccco3)CCC4)cc(=O)c2cc1C -0.994%
Cc1ccc2c(CNCc3cccc(Cl)c3)c(C(=O)O)n(Cc3ccc(F)cc3Cl)c2c1 -9.1%
CCOc1ccc(OCC)c(NC(=O)c2nnn(Cc3cc(Br)ccc3OC)c2N)c1 -10.4%
COCCCNC(=O)c1cn(CC(C)C)c(=O)c2c1c1ccccc1n2C -6.53%
COc1cc(OC)c(NS(=O)(=O)c2cc3c(cc2C)NC(=O)CO3)cc1Cl -26.5%
COCCn1c(CNC(=O)c2cccc(N(C)C)c2)nc2cccnc21 19.3%
CC(=O)c1ccc(N2CCN(C(=O)C3CCN(S(=O)(=O)c4ccc(Br)s4)CC3)CC2)cc1 -39.7%
Cc1ccc(NC(=O)c2nc(S(C)(=O)=O)ncc2N(Cc2ccco2)Cc2ccccc2F)c(C)c1 -18.7%
CCN(Cc1ccccc1)C(=O)CCS(=O)(=O)c1cc2c(cc1Cl)NC(=O)CO2 -8.97%
CCCCn1c(=O)n(Cc2ccccc2F)c(=O)c2[nH]c(Cc3ccc(NC(C)=O)cc3)nc21 -25.8%
Nc1ccc(-c2ccc3ncc4ccc(=O)n(-c5cccc(C(F)(F)F)c5)c4c3c2)cn1 -37%
COC(=O)c1cc(NC(=O)c2oc(=O)c3ccccc3c2-c2ccccc2)cc(C(=O)OC)c1 -10.7%
Cc1ccc(NC(=O)CN2C(=O)CSc3ccc(S(=O)(=O)N4CCCC4)cc32)cc1F -19.5%
Cc1ccc(NC(=O)c2c(NC(=O)c3ccco3)sc3c2CCC(C(C)(C)C)C3)c(C)c1 (stereo not given) -5.28%
CCc1ccc(NC(=O)c2cc(S(=O)(=O)NC3CCCC3)ccc2F)cc1 -24.4%
COc1cc(OC)c(NC(=O)c2nnn(Cc3ccc(C)cc3)c2N)cc1Cl -26.1%
O=C(Cn1ncc2c3ccccc3n(Cc3ccc(Cl)cc3)c2c1=O)N1CCCCCC1 -19.5%
O=C(Cc1ccc(F)cc1)NC1CC(=O)N(c2ccc3c(c2)OCCO3)C1 (stereo not given) -15.6%
COc1cccc(-c2cn3c(n2)sc2cc(C(=O)NC4CCCCCC4)ccc23)c1 5.77%
COc1ccc(Br)cc1CNC(=O)Cn1c(=O)c2cccn2c2ccc(F)cc21 -7.27%
Cc1ccccc1Cn1cc(CCC(=O)NC(C)c2ccccc2)c2ccccc21 (stereo not given) -22.1%
Cc1cc(C)c2oc(-c3cccc(NC(=O)c4ccc(Br)o4)c3)nc2c1 9.14%
CCOc1ccc(NC(=O)c2oc3ccccc3c2NC(=O)Cc2ccc(F)cc2)cc1 -1.71%
CCC(C)c1ccc(OCC(=O)Nc2cccc(-c3nc4ncccc4o3)c2)cc1 (stereo not given) -1.41%
CSc1ccc(CNC(=O)CCn2ccc3cc(S(=O)(=O)N4CCC(C)CC4)ccc32)cc1 -20.4%
COc1ccc(N2CCN(C(=O)c3cnc(N4CCCC4)nc3C)CC2)cc1 -8.37%
CC1=C(c2ccc(C)cc2)S(=O)(=O)N(Cc2ccc(C(=O)NCc3cccc(C)c3)cc2)C1=O -27.1%
COc1ccccc1CNS(=O)(=O)c1ccc2[nH]c3c(c2c1)CCCCC3 -29%
CCC(Sc1nc2ccccc2c2nc(CCc3c(C)n[nH]c3C)nn12)C(=O)Nc1ccc(F)cc1 (stereo not given) -6.87%
Cc1c(Cl)cccc1NC(=O)N1CCC(CN2CCCC2)CC1 -8.27%
O=C(Nc1sc2c(c1C(=O)Nc1ccccc1Cl)CCCC2)c1ccccc1F 9.44%
COc1ccc(CCNC(=O)CN(c2ccccc2OC)S(=O)(=O)c2ccc(C)cc2)cc1 -37.7%
COC(=O)c1c(NC(=O)c2cc(=O)c3ccc(C)c(C)c3o2)sc2c1CCCC2 3.08%
O=C(NCc1ccccc1Br)C1CCCN(C(=O)N2CCOc3ccccc32)C1 (stereo not given) -25.4%
CCCCN(CCCC)CC(O)c1cc(Cl)cc2c1-c1ccc(Cl)cc1C2=Cc1ccc(Cl)cc1 (stereo not given) -0.925%
COCCCNC(=O)Cn1c(=O)n(Cc2ccc(C(=O)NCc3ccc(C)cc3)cc2)c(=O)c2ccccc21 -13.8%
Cc1ccc(NC(=O)CSc2nc(C)c(Cc3ccccc3)c(=O)[nH]2)cc1 -28.3%
COc1ccc(-c2cc3nc(-c4ccccc4)cc(C(F)(F)F)n3n2)cc1 1.16%
COc1ccc(CCNC(=O)Cc2c(C)c3c(cc(C)c4c(C)coc43)oc2=O)cc1 1.85%
O=C(Nc1ccccc1F)c1nc(S(=O)(=O)Cc2ccccc2F)ncc1Cl -90%
CCN(C(=O)c1noc2c1COc1ccc(C)cc1-2)c1cccc(C)c1 -19.4%
CCOc1ccc(-c2nnc(SCC(=O)NC3CCCC3)nc2-c2ccc(OCC)c(OC)c2)cc1OC 28.8%
CC(C)(C)OC(=O)N1CCC(c2c(C(=O)NCCN3CCC(Cc4ccccc4)CC3)cnn2-c2cccc(Cl)c2)CC1 -52.3%
Cc1cccc(N2CCN(C(=O)c3cc(S(=O)(=O)N4CCC(C)CC4)cn3C)CC2)c1C -25.6%
CCCNC(=O)c1ccc2c(c1)N=C(C)c1c(C)ccc(C)c1S2 -53.6%
O=C(NCCCN1CCN(c2ccccc2)CC1)c1nnc(Cc2c(F)cccc2Cl)o1 -27.5%
O=C(NCc1ccc(Cl)cc1)C(=O)NCC(c1cccs1)S(=O)(=O)c1ccc(Cl)cc1 (stereo not given) -25.2%
CCOc1ccc(CCNC(=O)C2CCN(c3ncnc4c3nc3n4CCCCC3)CC2)cc1 -27.7%
Cc1ccccc1NC(=O)CCC(=O)N1CCSc2ccccc21 -15.2%
Cc1ccc(S(=O)(=O)N(CC(=O)Nc2ccc(C(C)C)cc2)Cc2ccccc2)cc1 -32.1%
CC(=O)N1c2ccc(S(=O)(=O)NCC3CCC(C(=O)NC(C)(C)C)CC3)cc2CC1C (stereo not given) -5.39%
O=C(NCC(c1cccs1)S(=O)(=O)c1cccs1)c1ccccc1F (stereo not given) -5.02%
CCN(CC)c1nn2c(=O)c(C(=O)NCc3ccc(OC)cc3OC)cnc2s1 -15%
Clc1ccccc1N1CCN(c2ncnc3c2c(-c2ccccc2)cn3-c2ccccc2)CC1 -11.1%
COc1ccccc1CNC(=O)c1ccccc1NC(=O)c1nsc2ccccc12 9.47%
Cc1ccc(-n2nc3ccc(NC(=O)c4oc5ccccc5c4C)cc3n2)cc1 8.46%
CCOC(=O)c1[nH]c2ccccc2c1NC(=O)c1ccccc1OCC -30.2%
O=C(Nc1ccc2c(c1)CCCN2C(=O)c1cccs1)c1cccc(C(F)(F)F)c1 -29.9%
CCOc1cc(C(=O)Nc2ccc(Cl)c(-c3nc4ccccc4[nH]3)c2)cc(OCC)c1OCC -33.8%
Cc1ccc(C(=O)Nc2ccc(Br)cc2)cc1S(=O)(=O)N1CCOCC1 -22.4%
CC(=O)c1cccc(NC(=O)Cn2c(=O)c(CNc3ccc(C)cc3)cc3cc4c(cc32)OCCO4)c1 -5.19%
COc1ccccc1C(=O)Nc1ccc2nc(N3CCC(C)CC3)cc(C)c2c1 -18.2%
CCOc1ccccc1NS(=O)(=O)c1c(C)nc2sccn2c1=O -13.5%
CCn1c(=O)c2cc(C(=O)N(CCCOC(C)C)Cc3ccco3)sc2c2ccccc21 -33%
Cc1ccc(-c2sc(C(=O)Nc3ccc(Br)cc3)cc2CC(=O)O)cc1 -13.5%
COc1ccc(NC(=O)CSc2nc3c([nH]c4ccccc43)c(=O)n2C)cc1 -7.53%
Nc1c(C(=O)Nc2ccccc2Cl)c2ccccn2c1C(=O)c1ccc(Cl)cc1 2.04%
Cc1ccc(CNC(=O)CSc2ncc(S(=O)(=O)c3ccc(Br)cc3)c(=O)[nH]2)cc1 1.44%
COc1ccc(NS(=O)(=O)c2ccc3c(c2)C(C(C)C)C(=O)N3)cc1 (stereo not given) -25.1%
CC1(C)S[C@@H]2[C@H](NC(=O)[C@H](N)c3ccccc3)C(=O)N2[C@H]1C(=O)O -0.778%
CCc1nn(CC(=O)NCCC(C)C)c(=O)c2cc3occc3n12 -11.6%
CCn1c(C)c(C2N3CC4(C)CN2CC(CC)(C3)C4=O)c2ccccc21 (stereo not given) 2.38%
Cc1ccc(CNC(=O)C(=O)NCC(c2cccs2)S(=O)(=O)c2ccc(C)cc2)cc1 (stereo not given) -38.5%
COC(=O)c1sccc1S(=O)(=O)N(CC(=O)NCc1ccccc1)c1ccccc1 -18%
Cc1c(C(=O)N2CCC(C)CC2)c(S(=O)(=O)NCc2ccccc2)c(C)n1C -2.67%
Cc1nn(C(=O)c2ccccc2F)c(C)c1S(=O)(=O)N1CCOCC1 -9.1%
COc1cccc(CC(=O)Nc2ccc3nc(N4CCC(C)CC4)cc(C)c3c2)c1 -34.9%
CCOc1ccc(CNC(=O)CCC(=O)N2CC3CCCN3c3ccccc32)cc1 (stereo not given) -9.14%
COc1ccc(Cl)cc1NC(=O)c1cc(S(=O)(=O)N2CCC(C)CC2)cn1C -16.1%
CCN1CCN(C(c2cccc(F)c2)c2c(O)cc(C)n(CCOC)c2=O)CC1 (stereo not given) 0.406%
CCc1nc2cccnc2n1-c1ccc(CC(=O)Nc2ccccc2Cl)cc1 -17.2%
